# Assay results: the supplement of paper PMC8728848
# The other results are listed elsewhere or left out.
# B1: MGL1 (Mus musculus), P49300 (protein)
# chain: MIYENLQNSRIEEKTQEPGKAPSQSFLWRILSWTHLLLFSLGLSLLLLVVVSVIGSQNSQLRRDLGTLRATLDNTTSKIKAEFQSLDSRADSFEKGISSLKVDVEDHRQELQAGRDLSQKVTSLESTVEKREQALKTDLSDLTDHVQQLRKDLKALTCQLANLKNNGSEVACCPLHWTEHEGSCYWFSESEKSWPEADKYCRLENSHLVVVNSLEEQNFLQNRLANVVSWIGLTDQNGPWRWVDGTDFEKGFKNWAPLQPDNWFGHGLGGGEDCAHITTGGPWNDDVCQRTFRWICEMKLAKES
# Key:
# Test in all cases: glycan array binding signal (z-score within array); higher = stronger binding
# Settings in all cases: glycan notation: IUPAC condensed, linker removed
# [1] = target: GlcNAc(b1-3)Gal(b1-4)GlcNAc(b1-3)Gal(b1-4)GlcNAc(b1-3)Gal(b1-4)GlcNAc(b1-3)Gal(b1-4)GlcNAc(b1-2)[GlcNAc(b1-3)Gal(b1-4)GlcNAc(b1-3)Gal(b1-4)GlcNAc(b1-3)Gal(b1-4)GlcNAc(b1-3)Gal(b1-4)GlcNAc(b1-6)]Man(a1-6)[GlcNAc(b1-3)Gal(b1-4)GlcNAc(b1-3)Gal(b1-4)GlcNAc(b1-3)Gal(b1-4)GlcNAc(b1-3)Gal(b1-4)GlcNAc(b1-2)Man(a1-3)]Man(b1-4)GlcNAc(b1-4)[Fuc(a1-6)]GlcNAc
# In short: (§1)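 The Consortium for Functional Glycomics database supplied 3228 glycan arrays, of which those lacking an available protein sequence were dropped. The binding signal, a within-array Z-score, was averaged across arrays of the same protein sequence and across linkers. Negative scores can be read as non-binding.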
# [2] = target: GlcNAc(b1-3)Gal(b1-4)GlcNAc(b1-3)Gal(b1-4)GlcNAc(b1-3)GalNAc
# In short: as §1
# [3] = target: GlcNAc(b1-3)Gal(b1-4)GlcNAc(b1-3)GalNAc
# In short: as §1
# [4] = target: GlcNAc(b1-3)Gal(b1-4)GlcNAc(b1-3)[GlcNAc(b1-3)Gal(b1-4)GlcNAc(b1-3)]GalNAc
# In short: as §1
# [5] = target: GlcNAc(b1-3)Gal(b1-4)GlcNAc(b1-6)[Gal(b1-3)]GalNAc
# In short: as §1
# [6] = target: GlcNAc(b1-3)Gal(b1-4)GlcNAc(b1-6)[GlcNAc(b1-3)Gal(b1-3)]GalNAc
# In short: as §1
# [7] = target: GlcNAc(b1-3)Gal(b1-4)GlcNAc(b1-6)[GlcNAc(b1-3)]Gal(b1-4)GlcNAc
# In short: as §1
# GlcNAc(b1-3)GalNAc = target: GlcNAc(b1-3)GalNAc
# In short: as §1
# GlcNAc(b1-3)Man = target: GlcNAc(b1-3)Man
# In short: as §1
# [8] = target: GlcNAc(b1-3)[GlcNAc(b1-4)][GlcNAc(b1-6)]GlcNAc
# In short: as §1
# [9] = target: GlcNAc(b1-3)[GlcNAc(b1-6)]Gal(b1-4)GlcNAc
# In short: as §1
# [10] = target: GlcNAc(b1-3)[GlcNAc(b1-6)]GalNAc
# In short: as §1
# [11] = target: GlcNAc(b1-3)[GlcNAc(b1-6)]GlcNAc
# In short: as §1
# [12] = target: GlcNAc(b1-4)Gal(b1-4)GlcNAc
# In short: as §1
# GlcNAc(b1-4)GlcNAc = target: GlcNAc(b1-4)GlcNAc
# In short: as §1
# [13] = target: GlcNAc(b1-4)GlcNAc(b1-4)GlcNAc
# In short: as §1
# [14] = target: GlcNAc(b1-4)GlcNAc(b1-4)GlcNAc(b1-4)GlcNAc(b1-4)GlcNAc
# In short: as §1
# [15] = target: GlcNAc(b1-4)GlcNAc(b1-4)GlcNAc(b1-4)GlcNAc(b1-4)GlcNAc(b1-4)GlcNAc
# In short: as §1
# [16] = target: GlcNAc(b1-4)[GlcNAc(b1-6)]GalNAc
# In short: as §1
binder,measurement,setting,value
B1,glycan array binding signal (z-score),[1],-0.096
same,glycan array binding signal (z-score),[2],-0.832
same,glycan array binding signal (z-score),[3],-0.589
same,glycan array binding signal (z-score),[4],-0.36
same,glycan array binding signal (z-score),[5],-1
same,glycan array binding signal (z-score),[6],-0.907
same,glycan array binding signal (z-score),[7],-0.208
same,glycan array binding signal (z-score),GlcNAc(b1-3)GalNAc,-0.669
same,glycan array binding signal (z-score),GlcNAc(b1-3)Man,-0.612
same,glycan array binding signal (z-score),[8],0.442
same,glycan array binding signal (z-score),[9],-0.194
same,glycan array binding signal (z-score),[10],-0.368
same,glycan array binding signal (z-score),[11],-0.161
same,glycan array binding signal (z-score),[12],-0.597
same,glycan array binding signal (z-score),GlcNAc(b1-4)GlcNAc,-0.241
same,glycan array binding signal (z-score),[13],-0.529
same,glycan array binding signal (z-score),[14],-0.509
same,glycan array binding signal (z-score),[15],-0.497
same,glycan array binding signal (z-score),[16],-0.44
